# Measurements reported in PubChem BioAssay AID1508624 (National Center for Advancing Translational Sciences (NCATS), 2021).
# About 120 (0.25%) of roughly 48,000 compounds were called active. Not shown: some 4% with an inconclusive outcome. Calls follow the shape of the dose curve; as a rule, active = well fitted activation curve with a large enough effect; inconclusive = small, poorly fitted or top-dose-only effect, or another doubt; inactive = no such curve, though single readings can be large or run the other way. This is one part of the list.
# Assay: Primary qHTS for Identification of Small Molecule Activators of Huntingtin-Antisense Promoter Activity; also: nearly all actives have a fitted effect of over 55% in size
# Details: HEK293 HTT-AS promoter firefly luciferase reporter (activity 0% = vehicle and -100% = no light), 24 h; series mostly up to 57.5 µM; activity change, positive = activation: at the top concentration
# Method in brief: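 HEK293 cells carrying firefly luciferase reporters were seeded at 2,500 per well in Opti-MEM and cultured for 24 h. They were then treated with compounds at up to 57.5 uM final for 24 h at 37 degrees C before Dual-Glo luminescence readout.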
row,Structure (SMILES),"activity change, positive = activation"
1,CCC(C)n1c(=N)c(S(=O)(=O)c2ccc(C)cc2)cc2c(=O)n3cc(C)ccc3nc21 (stereo unspecified),inactive: 0.108%
2,COc1cccc(NC(=O)Cn2c(=O)n(CCCC(=O)NCc3ccc4c(c3)OCO4)c(=O)c3ccccc32)c1,inactive: -5.29%
3,Cc1ccc(CNC(=O)c2c(-c3ccccc3F)noc2C)o1,inactive: -21.2%
4,Cc1ccc(-n2ncc3c(NNC(=O)c4ccccc4C)ncnc32)cc1,inactive: -10%
5,COc1ccc(-c2c(C)nn3c(N4CCC(C(=O)NCCC(C)C)CC4)cc(C)nc23)cc1OC,inactive: -10.8%
6,CC(C)c1ccc(C2c3c(-c4ccccc4O)n[nH]c3C(=O)N2CCc2ccccc2)cc1 (stereo unspecified),inactive: -57.3%
7,CC(C)CCn1c(SCc2ccc(F)cc2Cl)nc2ccsc2c1=O,inactive: -4.02%
8,CC1=C(C(=O)Nc2ccccc2)C(c2ccc(C(=O)O)cc2)n2nc(SCC(=O)c3ccc(C)cc3)nc2N1 (stereo unspecified),inactive: 1.94%
9,CCc1ccc(-c2[nH]c3c(c2-c2c(-n4cccc4)n(C)c(=O)n(C)c2=O)c(=O)n(C)c(=O)n3C)cc1,inactive: 4.24%
10,Cc1ccc(Cn2c(=O)c3c(nc4n3CCN4c3cc(C)cc(C)c3)n(C)c2=O)cc1,inactive: 12.7%
11,CCN(CC)CCn1c(=N)n(CC(O)COc2ccccc2C)c2ccccc21 (stereo unspecified),inactive: -37.3%
12,COc1ccc(-c2nc(CCNC(=O)c3cc(OC)c(OC)c(OC)c3)cs2)cc1,inactive: -17.8%
13,COCCCNC(=O)c1ccc(NC(=O)N2CCCCc3ccccc32)cc1,inactive: -18%
14,CCCN1CCN(CC2=C(C(=O)OCC)C(c3ccc(Cl)cc3)NC(=O)N2)CC1 (stereo unspecified),inactive: -7.72%
15,COc1ccc(Cl)cc1NC(=O)CCCn1c(=O)c2cccn2c2cccnc21,inactive: -23.5%
16,COc1ccc(CNC(=O)Cc2c(C)c3c(cc(C)c4c(C)coc43)oc2=O)cc1,inactive: -2.32%
17,C#CC1(O)CC[C@H]2[C@@H]3CCC4=CCCC[C@@H]4[C@H]3CC[C@@]21C (stereo partly specified),inactive: -9.05%
18,CCN1CCC(N(Cc2ccc(F)cc2)C(=O)Nc2cccc(C(F)(F)F)c2)CC1,inactive: -25.5%
19,CCc1ccccc1Nc1nn2c(=O)c3ccc(C(=O)Nc4ccc(OC)cc4)cc3nc2s1,inactive: -28%
20,O=C(CSc1nc2ccccc2nc1Cc1ccccc1)N1CCN(c2ccccc2)CC1,inactive: 3.49%
21,Cc1cccc(NC(=O)NCCOCCn2c(=O)oc3ccccc32)c1C,inactive: -10.3%
22,COC(=O)c1nnn(CC(=O)NC(=O)Nc2ccccc2F)c1C(=O)OC,inactive: 18.4%
23,Cc1noc(NS(=O)(=O)c2ccc(NC(=O)c3ccc(Br)cc3)cc2)c1C,inactive: 7.32%
24,Cc1c(Cl)cccc1NC(=O)c1ccc2nc(C(C)C)oc2c1,inactive: -17.6%
25,COc1ccc(N2CCN(C(=O)c3cc4cc5ccc(Cl)cc5nc4o3)CC2)cc1,inactive: -1.51%
26,COc1ccc(C)cc1S(=O)(=O)NCC(c1ccc(N(C)C)cc1)N1CCc2ccccc21 (stereo unspecified),inactive: -21.3%
